Data published in PubChem BioAssay AID1963576 (National Center for Advancing Translational Sciences (NCATS), 2024).
In all, about 46,000 compounds went through this assay and about 60 (0.1%) were called active. Another 3% or so got no clear call; they are omitted. The call rests on the fitted dose curve; in most records, active means well fitted inhibition curve with a large enough effect; inconclusive means small, poorly fitted or top-dose-only effect; inactive means no such curve, though single readings can be large or run the other way. The list shows a part of the results.

Experiment: Primary qHTS assay for Inhibitors of ovarian cancer metastasis using an organotypic tumor microenvironment (TME) model. Further: nearly all actives have a fitted effect of over 65% in size.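 On activity change, negative = inhibition: plate controls were DMSO wells for no effect and tomatine positive control wells for full effect.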
Details: SKOV3ip1-GFP adhesion/invasion on 3D omental model, fluorescence; series mostly up to 45.8 µM; activity change, negative = inhibition: at the top concentration
Summary of the method: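 Primary human omental fibroblast/mesothelial 3D culture pre-formed 48 h. SKOV3ip1-GFP cells added with compounds (0.36-46 umol/L), incubated 2 h RT/16 h 37 C, fixed; GFP cells quantified at 488/509 nm.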
For `COC(=O)c1scc(-c2ccc(C)cc2)c1S(=O)(=O)N1CCN(c2cccc(OC)c2)CC1`, the “activity change, negative = inhibition” value was inactive: 1.15%.
In the case of `CCc1ccc(CN(Cc2ccco2)c2cnc(S(C)(=O)=O)nc2C(=O)Nc2ccccc2Cl)cc1`, the “activity change, negative = inhibition” value is reported as inactive: -10%.
In the case of `CCN(c1ccccc1)c1nnc(NC(=O)Nc2ccccc2F)s1`, the “outcome” value is reported as “inactive”.
With `CCOC(=O)c1ccc(NC(=O)CC2C(=O)OCCN2CC)cc1` (centres undefined) the “outcome” value was “inactive”.
With `Cc1ccc(NC(=O)Nc2ccc3snnc3c2)cc1C` the “activity change, negative = inhibition” value was inactive: -6.09%.
With `O=C(NCc1ccco1)c1ccc2c(c1)N(Cc1ccc(Cl)cc1)C(=O)c1ccccc1S2=O` (centres undefined) the “activity change, negative = inhibition” value was inactive: 64.3%.
For `Cc1c2cnn(CC(=O)NC(C)C)c(=O)c2c(C)n1Cc1ccccc1Cl`, the “activity change, negative = inhibition” value was inactive: 23.9%.
For `CCN(C(=O)CSc1nc2ccccc2n1Cc1cc(C)ccc1C)c1ccccc1`, the “activity change, negative = inhibition” value was inactive: -18.5%.
In the case of `CCC(Sc1nncn2c1cc1occc12)C(=O)Nc1ccc(C)c(Cl)c1` (centres undefined), the “activity change, negative = inhibition” value is reported as inactive: 4.17%.
In the case of `Cc1ccc(C(=O)NCC(c2cccs2)S(=O)(=O)c2cccs2)cc1` (centres undefined), the “activity change, negative = inhibition” value is reported as inactive: -0.94%.
In the case of `COc1cc(C(=O)Nc2ccc3nc(SCc4ccccc4)sc3c2)cc(OC)c1OC`, the “activity change, negative = inhibition” value is reported as inactive: -19.9%.
For `CCOC(=O)N1CCc2c(sc3c2c(=O)n(-c2ccc(CC)cc2)c(=O)n3CC(=O)c2ccc(F)cc2)C1`, the “activity change, negative = inhibition” value was inactive: 5.39%.
With `Cc1c2cnn(CC(=O)Nc3cccc(C(F)(F)F)c3)c(=O)c2c(C)n1Cc1ccccc1Cl` the “activity change, negative = inhibition” value was inactive: 15.6%.
In the case of `COc1ccccc1/C=C/c1nc(C#N)c(N(C)C)o1`, the “outcome” value is reported as “inactive”.
With `COc1ccc(N2CCN(C(=O)c3ccc(-c4nc(COc5ccccc5)c(C)o4)cc3)CC2)cc1` the “outcome” value was “inactive”.
In the case of `Cc1cccc(OCC(=O)N(Cc2sccc2C)C2CCS(=O)(=O)C2)c1` (centres undefined), the “activity change, negative = inhibition” value is reported as inactive: 8.05%.
With `CCCNC(=O)C1CCC(Cn2c(=O)c3sccc3n(CC(=O)N3CCC(C)CC3)c2=O)CC1` (centres undefined) the “activity change, negative = inhibition” value was inactive: 3.01%.
With `O=C(Cn1nc(-c2ccc(Cl)cc2)ccc1=O)NCc1ccccc1Cl` the “activity change, negative = inhibition” value was inactive: -16.4%.
For `Cc1nnc(NS(=O)(=O)c2ccc(N)cc2)s1`, the “activity change, negative = inhibition” value was inactive: -3.62%.
In the case of `CCOc1ccc(OCC)c(NC(=O)CN(C)S(=O)(=O)c2ccc3c(c2)CCCC(=O)N3)c1`, the “activity change, negative = inhibition” value is reported as inactive: -6.84%.
With `COc1cccc(C2C(C(=O)Nc3ccc(C)cc3C)=C(C)Nc3c(C(=O)Nc4cccc(C)c4)cnn32)c1OC` (centres undefined) the “activity change, negative = inhibition” value was inactive: -0.797%.
For `COc1cccc(N2CCN(C3C(=O)c4ccccc4N3C(C)=O)CC2)c1` (centres undefined), the “activity change, negative = inhibition” value was inactive: -13.4%.
In the case of `COc1ccc(N2CCN(C(=O)c3nc(SC)ncc3Cl)CC2)cc1`, the “activity change, negative = inhibition” value is reported as inactive: 1.25%.
For `Cc1coc2c(C)c3oc(=O)c(CCC(=O)NCCc4ccc(Cl)cc4)c(C)c3cc12`, the “activity change, negative = inhibition” value was inactive: -2.62%.
In the case of `CCOc1ccc(-c2nc(C#N)c(NCCCOC)o2)cc1`, the “activity change, negative = inhibition” value is reported as inactive: -8.32%.
With `CC(NC(=O)CCCn1c(=O)c2cccn2c2cccnc21)c1ccccc1` (centres undefined) the “activity change, negative = inhibition” value was inactive: 16.9%.
For `Cc1ccccc1OCCn1c(CCNC(=O)C(C)(C)C)nc2ccccc21`, the “activity change, negative = inhibition” value was inactive: -2.41%.
With `CC1=C(c2ccc(C)c(C)c2)S(=O)(=O)N=C1N1CCC(C(=O)NCc2ccc(C)o2)CC1` the “activity change, negative = inhibition” value was inactive: -9.43%.
For `CC(C)(C)OC(=O)N1CCC(c2c(C(=O)N3CCc4ccccc4C3)cnn2-c2ccc(F)cc2)CC1`, the “activity change, negative = inhibition” value was inactive: -12.1%.
In the case of `COc1ccc(C(C)C)cc1S(=O)(=O)NCCc1c(C)[nH]c2ccc(C)cc12`, the “outcome” value is reported as “inactive”.
With `COc1ccc(-c2cc(-c3ccccc3)nc(SCC(=O)CC(=O)OC(C)C)c2C#N)cc1` the “outcome” value was “inactive”.
With `O=C(c1ccc2c(c1)N(Cc1ccccc1F)C(=O)c1ccccc1S2(=O)=O)N1CCCC1` the “outcome” value was “inactive”.
For `CC(NC(=O)CCSCc1ccccc1F)c1ccccc1` (centres undefined), the “outcome” value was “inactive”.
In the case of `CCc1ccc(CNC(=O)CSc2cc(=O)n(C)c3ccc(Cl)cc23)cc1`, the “outcome” value is reported as “inactive”.
With `COCCCNC(=O)c1c(NC(=O)Cc2coc3cc(C)cc(C)c23)sc2c1CCCC2` the “activity change, negative = inhibition” value was inactive: 1.38%.
For `COc1ccc(OC)c(CNC(=O)Cc2ccc(NC(=O)N3CCCCc4ccccc43)cc2)c1`, the “activity change, negative = inhibition” value was inactive: 6.05%.
With `CCN(CCCNC(=O)c1cc2c(=O)n(CC)c3ccccc3c2s1)c1ccccc1` the “activity change, negative = inhibition” value was inactive: 22.1%.
With `CCN(CC)S(=O)(=O)c1cc(-c2onc(C)c2C)ccc1OC` the “outcome” value was “inactive”.
With `COc1ccc(CCCc2nnc(SCC(=O)Nc3ccc(C)cc3C)o2)cc1` the “outcome” value was “inactive”.
In the case of `O=C(CSc1nccn1Cc1ccc(F)cc1)Nc1ccc2c(c1)OCCO2`, the “activity change, negative = inhibition” value is reported as inactive: 1.12%.
With `Cc1ccc(-c2noc(-c3nnn(CC(=O)Nc4cc(C)cc(C)c4)c3N)n2)cc1` the “outcome” value was “inactive”.
For `CCCNC(=O)CSc1nc2nc(C)c(Cc3ccccc3Cl)c(C)n2n1`, the “activity change, negative = inhibition” value was inactive: 6.98%.
For `COc1ccc(C(=O)N(Cc2cc(OC)c(OC)c(OC)c2)CC2CCCO2)cc1` (centres undefined), the “activity change, negative = inhibition” value was inactive: 11.6%.
In the case of `O=C(NCC(c1cccnc1)N1CCc2ccccc21)c1cccc(C(F)(F)F)c1` (centres undefined), the “activity change, negative = inhibition” value is reported as inactive: -11.2%.
With `Cc1cc(F)ccc1NCc1ccccc1-c1nnc(-c2ccccc2Cl)o1` the “activity change, negative = inhibition” value was inactive: 6.73%.
With `CCc1ccc(C(=O)c2cn(CC(=O)Nc3ccc(OC)cc3OC)c3ccc(CC)cc3c2=O)cc1` the “outcome” value was “inactive”.
In the case of `O=C(NCc1cccc(Cl)c1)C1CCN(C(=O)c2sccc2-n2cccc2)CC1`, the “activity change, negative = inhibition” value is reported as inactive: -2.74%.
For `Cc1ccc(N(C)C(=O)c2cnc(N3CCOCC3)c3ccccc23)cc1C`, the “outcome” value was “inactive”.
For `CC(=O)N1CCC(N(C(=O)Nc2c(F)cccc2F)C(C)C)CC1`, the “activity change, negative = inhibition” value was inactive: -4.3%.
